Where a name gives a salt, the structure may show the parent alone. Whole data set: some 1,900 compounds, median “cell viability of compound + 1 nM pemigatinib relative to pemigatinib-only (DMSO) wells” near 0.95, cut for the lowest 2% near 0.22. The list shows a part of the results.

For the assay, the system named is PDC-DUC18828. The experiment in a line: cell viability of compound + 1 nM pemigatinib relative to pemigatinib-only (DMSO) wells (fraction); PDC-DUC18828 is a patient-derived cholangiocarcinoma cell line; higher = less growth inhibition. Conditions: first compound 1 µM; pemigatinib concentration 1 nM; 72 h. The protocol: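 Selleck Bioactive library screen in the patient-derived FGFR2 fusion-positive ICC cell line PDC-DUC18828 (500 cells/well). Each compound was tested at 1 uM with 1 nM pemigatinib, in triplicate, for 72 h. Viability was read by CellTiter-Glo and normalised to plate DMSO controls. Value is the paper's averaged normalised viability.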
`Cc1ccc2c(Cl)cc(Cl)c(O)c2n1` [Chlorquinaldol] + CCN1C(=O)N(c2c(F)c(OC)cc(OC)c2F)Cc2cnc3[nH]c(CN4CCOCC4)cc3c21 [pemigatinib]: the cell viability came out at 0.96.

For `N=C(N)N/N=C/c1c(Cl)cccc1Cl` [Guanabenz Acetate] + CCN1C(=O)N(c2c(F)c(OC)cc(OC)c2F)Cc2cnc3[nH]c(CN4CCOCC4)cc3c21 [pemigatinib], the cell viability stood at 0.91.

Consider `CN(C)CCOC(=O)COc1ccc(Cl)cc1` [Meclofenoxate (Centrophenoxine) HCl] + CCN1C(=O)N(c2c(F)c(OC)cc(OC)c2F)Cc2cnc3[nH]c(CN4CCOCC4)cc3c21 [pemigatinib], for which the cell viability amounted to 0.955.

With `Brc1c(NC2=NCCN2)ccc2nccnc12` [Brimonidine Tartrate] + CCN1C(=O)N(c2c(F)c(OC)cc(OC)c2F)Cc2cnc3[nH]c(CN4CCOCC4)cc3c21 [pemigatinib], the cell viability was 0.99.

For the compound `C[C@H](Oc1cc(-c2cnn(C3CCNCC3)c2)cnc1N)c1c(Cl)ccc(F)c1Cl` [(S)-crizotinib] + CCN1C(=O)N(c2c(F)c(OC)cc(OC)c2F)Cc2cnc3[nH]c(CN4CCOCC4)cc3c21 [pemigatinib], the cell viability came out at 0.938.

Consider `CCCCC(=O)N(Cc1ccc(-c2ccccc2-c2nnn[nH]2)cc1)[C@H](C(=O)O)C(C)C.CCOC(=O)[C@H](C)C[C@@H](Cc1ccc(-c2ccccc2)cc1)NC(=O)CCC(=O)O` + CCN1C(=O)N(c2c(F)c(OC)cc(OC)c2F)Cc2cnc3[nH]c(CN4CCOCC4)cc3c21 [pemigatinib], for which the cell viability came out at 0.916.

`Cc1cc(Nc2nc(N[C@@H](C)c3ncc(F)cn3)ncc2Cl)[nH]n1` + CCN1C(=O)N(c2c(F)c(OC)cc(OC)c2F)Cc2cnc3[nH]c(CN4CCOCC4)cc3c21 [pemigatinib]: the cell viability came to 0.62.

With `OC[C@H]1O[C@@H](O[C@@H]2[C@@H](CO)OC(O)(CO)[C@H]2O)[C@H](O)[C@@H](O)[C@H]1O` (mixture of isomers) [Lactulose] + CCN1C(=O)N(c2c(F)c(OC)cc(OC)c2F)Cc2cnc3[nH]c(CN4CCOCC4)cc3c21 [pemigatinib], the cell viability amounted to 1.02.

In the case of `CC[C@@H]1/C=C(\C)C[C@H](C)C[C@H](OC)[C@H]2O[C@@](O)(C(=O)C(=O)N3CCCC[C@H]3C(=O)O[C@H](/C(C)=C/[C@@H]3CC[C@H](Cl)[C@H](OC)C3)[C@H](C)[C@@H](O)CC1=O)[C@H](C)C[C@@H]2OC` [Pimecrolimus] + CCN1C(=O)N(c2c(F)c(OC)cc(OC)c2F)Cc2cnc3[nH]c(CN4CCOCC4)cc3c21 [pemigatinib], the cell viability is 0.982.

Turning to `CCN(c1cc(-c2ccc(CN3CCOCC3)cc2)cc(C(=O)NCc2c(C)cc(C)[nH]c2=O)c1C)C1CCOCC1` + CCN1C(=O)N(c2c(F)c(OC)cc(OC)c2F)Cc2cnc3[nH]c(CN4CCOCC4)cc3c21 [pemigatinib], the cell viability came out at 0.92.

As to `Cn1c([N+](=O)[O-])cnc1COC(N)=O` [Ronidazole] + CCN1C(=O)N(c2c(F)c(OC)cc(OC)c2F)Cc2cnc3[nH]c(CN4CCOCC4)cc3c21 [pemigatinib], the cell viability is 0.982.

For `O=C(O)CC1CC(c2ccccc2)=NO1` (stereo unspecified) + CCN1C(=O)N(c2c(F)c(OC)cc(OC)c2F)Cc2cnc3[nH]c(CN4CCOCC4)cc3c21 [pemigatinib], the cell viability was found to be 1.

Turning to `CN(C)[C@@H]1C(O)=C(C(N)=O)C(=O)[C@@]2(O)C(O)=C3C(=O)c4c(O)ccc(Cl)c4[C@@H](O)[C@H]3C[C@@H]12` [Demeclocycline HCl] + CCN1C(=O)N(c2c(F)c(OC)cc(OC)c2F)Cc2cnc3[nH]c(CN4CCOCC4)cc3c21 [pemigatinib], the cell viability amounted to 0.989.

For `C[C@@H]1CN(CC(=O)Nc2ccc3c(c2)Cc2cccc(-c4cc(=O)cc(N5CCOCC5)o4)c2S3)C[C@H](C)O1` + CCN1C(=O)N(c2c(F)c(OC)cc(OC)c2F)Cc2cnc3[nH]c(CN4CCOCC4)cc3c21 [pemigatinib], the cell viability came to 0.984.

On to `CCC[C@H](NC(=O)[C@@H]1[C@H]2CCC[C@H]2CN1C(=O)[C@@H](NC(=O)[C@@H](NC(=O)c1cnccn1)C1CCCCC1)C(C)(C)C)C(=O)C(=O)NC1CC1` [Telaprevir (VX-950)] + CCN1C(=O)N(c2c(F)c(OC)cc(OC)c2F)Cc2cnc3[nH]c(CN4CCOCC4)cc3c21 [pemigatinib], for which the cell viability came to 1.03.

`CCc1cccc2c3c([nH]c12)C(CC)(CC(=O)O)OCC3` (stereo unspecified) [Etodolac] + CCN1C(=O)N(c2c(F)c(OC)cc(OC)c2F)Cc2cnc3[nH]c(CN4CCOCC4)cc3c21 [pemigatinib]: the cell viability was determined as 0.975.

Take `Cc1noc(NS(=O)(=O)c2ccc(N)cc2)c1C` [Sulfisoxazole] + CCN1C(=O)N(c2c(F)c(OC)cc(OC)c2F)Cc2cnc3[nH]c(CN4CCOCC4)cc3c21 [pemigatinib]: the cell viability is 0.963.

As to `Cc1nc(N)sc1-c1ccnc(Nc2ccc(N3CCOCC3)cc2)n1` + CCN1C(=O)N(c2c(F)c(OC)cc(OC)c2F)Cc2cnc3[nH]c(CN4CCOCC4)cc3c21 [pemigatinib], the cell viability is 0.931.

Regarding `C[C@]12CC[C@@H]3c4ccc(O)cc4CC[C@H]3[C@@H]1C[C@@H](O)[C@@H]2O` [Estriol] + CCN1C(=O)N(c2c(F)c(OC)cc(OC)c2F)Cc2cnc3[nH]c(CN4CCOCC4)cc3c21 [pemigatinib], the cell viability came out at 0.913.

Regarding `CC1=C(CC(=O)O)c2cc(F)ccc2/C1=C\c1ccc([S+](C)[O-])cc1` (stereo unspecified) [Sulindac] + CCN1C(=O)N(c2c(F)c(OC)cc(OC)c2F)Cc2cnc3[nH]c(CN4CCOCC4)cc3c21 [pemigatinib], the cell viability worked out at 0.983.

For `C=CC(=O)Nc1ccc2ncnc(Nc3ccc(OCc4cccc(F)c4)c(Cl)c3)c2c1` + CCN1C(=O)N(c2c(F)c(OC)cc(OC)c2F)Cc2cnc3[nH]c(CN4CCOCC4)cc3c21 [pemigatinib], the cell viability came out at 0.74.

As for `C=CC(=O)N1CCC[C@@H](n2nc(-c3ccc(Oc4ccccc4)cc3)c3c(N)ncnc32)C1` + CCN1C(=O)N(c2c(F)c(OC)cc(OC)c2F)Cc2cnc3[nH]c(CN4CCOCC4)cc3c21 [pemigatinib], the cell viability was 0.893.

Turning to `CC(=O)N1CCN(CCOc2ccc(C3CCN(C4=Nn5c(nnc5C(F)(F)F)CC4)CC3)cc2)CC1` + CCN1C(=O)N(c2c(F)c(OC)cc(OC)c2F)Cc2cnc3[nH]c(CN4CCOCC4)cc3c21 [pemigatinib], the cell viability stood at 0.994.

For the compound `O=C(O)c1ccccc1C(=O)Nc1ccc(-c2ccccc2)cc1` [Kartogenin] + CCN1C(=O)N(c2c(F)c(OC)cc(OC)c2F)Cc2cnc3[nH]c(CN4CCOCC4)cc3c21 [pemigatinib], the cell viability stood at 0.892.

`CNC(=O)[C@H](Cc1ccccc1)NC(=O)[C@H](CC(C)C)[C@H](CSc1cccs1)C(=O)NO` [Batimastat (BB-94)] + CCN1C(=O)N(c2c(F)c(OC)cc(OC)c2F)Cc2cnc3[nH]c(CN4CCOCC4)cc3c21 [pemigatinib]: the cell viability is 0.933.

With `CCOC(=O)[C@H](CCc1ccccc1)N[C@@H](C)C(=O)N1CCC[C@H]1C(=O)O` [Enalapril Maleate] + CCN1C(=O)N(c2c(F)c(OC)cc(OC)c2F)Cc2cnc3[nH]c(CN4CCOCC4)cc3c21 [pemigatinib], the cell viability worked out at 1.

With `Nc1cccc2c1CN(C1CCC(=O)NC1=O)C2=O` (stereo unspecified) [Lenalidomide (CC-5013)] + CCN1C(=O)N(c2c(F)c(OC)cc(OC)c2F)Cc2cnc3[nH]c(CN4CCOCC4)cc3c21 [pemigatinib], the cell viability stood at 0.965.

`NC(=S)N/N=C/c1ncccc1N` [Triapine] + CCN1C(=O)N(c2c(F)c(OC)cc(OC)c2F)Cc2cnc3[nH]c(CN4CCOCC4)cc3c21 [pemigatinib]: the cell viability worked out at 0.936.

On to `COc1ccc2[nH]c([S+]([O-])Cc3ncc(C)c(OC)c3C)nc2c1` (stereo unspecified) [Omeprazole] + CCN1C(=O)N(c2c(F)c(OC)cc(OC)c2F)Cc2cnc3[nH]c(CN4CCOCC4)cc3c21 [pemigatinib], for which the cell viability was 0.985.

Regarding `CCS(=O)(=O)Nc1ccc2c(c1)/C(=C(/Nc1ccc(CN3CCCCC3)cc1)c1ccccc1)C(=O)N2` [Hesperadin] + CCN1C(=O)N(c2c(F)c(OC)cc(OC)c2F)Cc2cnc3[nH]c(CN4CCOCC4)cc3c21 [pemigatinib], the cell viability amounted to 0.26.

On to `O=C(Nc1ccc(-c2ccnc(Nc3ccc(N4CCOCC4)cc3)n2)cc1)C1CCCN1` (stereo unspecified) + CCN1C(=O)N(c2c(F)c(OC)cc(OC)c2F)Cc2cnc3[nH]c(CN4CCOCC4)cc3c21 [pemigatinib], for which the cell viability is 0.951.

Regarding `COc1nc(-c2ccc3c(c2)OCO3)n(-c2ccc(NC(=O)CSc3ccccc3)cc2)n1` [SecinH3] + CCN1C(=O)N(c2c(F)c(OC)cc(OC)c2F)Cc2cnc3[nH]c(CN4CCOCC4)cc3c21 [pemigatinib], the cell viability came to 0.954.

Consider `[I-].[K+]` [Potassium Iodide] + CCN1C(=O)N(c2c(F)c(OC)cc(OC)c2F)Cc2cnc3[nH]c(CN4CCOCC4)cc3c21 [pemigatinib], for which the cell viability was 1.07.

On to `Cc1ccccc1N1C(=O)c2cc(S(N)(=O)=O)c(Cl)cc2NC1C` (stereo unspecified) [Metolazone] + CCN1C(=O)N(c2c(F)c(OC)cc(OC)c2F)Cc2cnc3[nH]c(CN4CCOCC4)cc3c21 [pemigatinib], for which the cell viability was determined as 1.03.

With `Cc1cc(-n2c(=O)[nH]c(=O)n(C)c2=O)ccc1Oc1ccc(SC(F)(F)F)cc1` [Toltrazuril] + CCN1C(=O)N(c2c(F)c(OC)cc(OC)c2F)Cc2cnc3[nH]c(CN4CCOCC4)cc3c21 [pemigatinib], the cell viability is 1.04.

For `OCCOCCN1CCN(C(c2ccccc2)c2ccc(Cl)cc2)CC1` (stereo unspecified) [Hydroxyzine 2HCl] + CCN1C(=O)N(c2c(F)c(OC)cc(OC)c2F)Cc2cnc3[nH]c(CN4CCOCC4)cc3c21 [pemigatinib], the cell viability was 0.996.

The values are drawn from the supplement of paper PMC9588766.
